Percent labeling data for 24 molecules are collected here from PubChem BioAssay AID2202238 (Ras Initiative Chemistry Research Team, Frederick National …, 2025).

Structures are written as SMILES. The list shows a part of the results. These are further read-outs of the screen, such as a control signal, another cell line or another target. No call is given for them.

The target in the experiment is GTPase KRas (Homo sapiens) (UniProt P01116). The experiment in a line: Covalent labelling of cysteine mutants by fragments, read by mass spectrometry (AID 2202238). More on the design: protein at 5 µM with 500 µM competing thiol for 1.5 h. Particulars: KRAS G12D cysteine mutants, disulfide tethering, MALDI-TOF labeling, stronger effect = higher value, fragment at 500 µM.
Setting [1] is: measured here: G75C mutant labeling.
[2] abbreviates: measured here: H94C mutant labeling.
Setting [3] is: measured here: I36C mutant labeling.
Setting [4] is: measured here: L120C mutant labeling.
The mark [5] stands for this setting: measured here: M67C mutant labeling.
The mark [6] stands for this setting: measured here: M72C mutant labeling.
Setting [7] is: measured here: N86C mutant labeling.
[8] abbreviates: measured here: P121C mutant labeling.
[9] abbreviates: measured here: S122C mutant labeling.
The mark [10] stands for this setting: measured here: S136C mutant labeling.
Where [11] appears, read: measured here: G60C mutant labeling.
[12] abbreviates: measured here: N26C mutant labeling.

Sequence of UniProt P01116 (P01116 whole entry, looked up, the tested form may be a part): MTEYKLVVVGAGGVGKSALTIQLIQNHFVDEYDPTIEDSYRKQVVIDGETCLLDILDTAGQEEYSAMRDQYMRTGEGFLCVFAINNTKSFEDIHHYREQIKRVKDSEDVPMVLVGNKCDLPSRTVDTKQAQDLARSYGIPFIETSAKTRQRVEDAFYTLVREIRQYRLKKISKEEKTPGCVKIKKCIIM

As for `COc1ccc(CCN(C)C(=O)CCS)cc1OC`, the percent labeling came to 14.2% under setting [1]; 37.7% under setting [2]; 38.8% under setting [3]; 29% under setting [4]; 40.6% under setting [5]; 26.3% under setting [6]. Moreover, the percent labeling was determined as 23.3% under setting [7], 33.5% under setting [8], 37.5% under setting [9] and 60.1% under setting [10].
`Cn1nccc1C1(O)CN(C(=O)CCS)C1`: the percent labeling is 13.6% under setting [1]; 21.3% under setting [2]; 27.8% under setting [3]; 17.2% under setting [4]; 30.3% under setting [5]; 16% under setting [6]. Moreover, the percent labeling amounted to 20.4% under setting [7], 28.9% under setting [8], 34.1% under setting [9] and 40.2% under setting [10].
As to `O=C(Cc1scnc1-c1ccccc1)NCCS`, the percent labeling is, setting by setting: under setting [11], 38.3%; under setting [1], 8.7%; under setting [2], 27.2%; under setting [3], 26%; under setting [4], 38.8%; under setting [5], 52.5%. In addition, the percent labeling is, setting by setting: under setting [6], 29.7%; under setting [12], 36.5%; under setting [7], 23.5%; under setting [8], 31.2%; under setting [9], 26.6%; under setting [10], 47.4%.
On to `Cn1cc(-c2nc(C(=O)NCCS)cs2)cn1`, for which the percent labeling by setting is: under setting [11], 32.1%; under setting [1], 27.7%; under setting [2], 40%; under setting [3], 25.6%; under setting [4], 47%; under setting [5], 27.9%. The molecule also returned a percent labeling under setting [6] of 56.8%; a percent labeling under setting [12] of 53.7%; a percent labeling under setting [7] of 27%; a percent labeling under setting [8] of 24.1%; a percent labeling under setting [9] of 25.4%; a percent labeling under setting [10] of 46.5%.
With `O=C(Cc1cscc1Br)NCCS`, the percent labeling is 59.7% under setting [11]; 24.4% under setting [1]; 45.6% under setting [2]; 33.5% under setting [3]; 39.9% under setting [4]; 35.5% under setting [5]. Further, the percent labeling by setting is: under setting [6], 63.8%; under setting [12], 41.7%; under setting [7], 38.5%; under setting [8], 32.7%; under setting [9], 32.7%; under setting [10], 51.3%.
On to `COc1ccc(-c2oc(C)cc2C(=O)NCCS)cc1`, for which the percent labeling by setting is: under setting [11], 40.6%; under setting [1], 17.3%; under setting [2], 12.8%; under setting [3], 8%; under setting [4], 24.9%; under setting [5], 12.1%. Moreover, the percent labeling was 19.8% under setting [6]; 24.5% under setting [12]; 9.6% under setting [7]; 14% under setting [8]; 10.7% under setting [9]; 19% under setting [10].
Regarding `O=C(CCS)N(CCO)Cc1cccnc1Cl`, the percent labeling stood at 10.4% under setting [1]; 28.3% under setting [2]; 33.2% under setting [3]; 38.8% under setting [4]; 36.6% under setting [5]; 21.8% under setting [6]. In addition, the percent labeling under setting [7] is 13.9%, the percent labeling under setting [8] turned out to be 36.1%, the percent labeling under setting [9] worked out at 34.8% and the percent labeling under setting [10] came to 51.5%.
Molecule `O=C(CCS)N1CCc2[nH]cc(Br)c(=O)c2C1` displayed a percent labeling under setting [1] of 11%; a percent labeling under setting [2] of 30.3%; a percent labeling under setting [3] of 42.3%; a percent labeling under setting [4] of 29.8%; a percent labeling under setting [5] of 31.2%; a percent labeling under setting [6] of 18.3%. The percent labeling by setting is: under setting [7], 28.5%; under setting [8], 22.2%; under setting [9], 23.9%; under setting [10], 48.5%.
Consider `O=C(Cc1ccccc1OC1CCOC1)NCCS` (configuration not stated), for which the percent labeling by setting is: under setting [11], 34.4%; under setting [1], 10.9%; under setting [2], 36.3%; under setting [3], 24.2%; under setting [4], 44.7%; under setting [5], 34.6%. The percent labeling is 19% under setting [6]; 33.3% under setting [12]; 26.7% under setting [7]; 30.2% under setting [8]; 32.8% under setting [9]; 44.2% under setting [10].
In the case of `O=C(CCS)NCc1ccc(N2CCCNC2=O)cc1`, the percent labeling runs as follows: under setting [1], 9.1%; under setting [2], 34.3%; under setting [3], 37.1%; under setting [4], 43.2%; under setting [5], 38.4%; under setting [6], 20.3%. The percent labeling came out at 21.1% under setting [7], 31.6% under setting [8], 32.6% under setting [9] and 45.7% under setting [10].
As to `Cc1nnc2ccc(C3CCN(C(=O)CCS)CC3)nn12`, the percent labeling under setting [1] came out at 13%; the percent labeling under setting [2] is 35.3%; the percent labeling under setting [3] was 38.3%; the percent labeling under setting [4] is 30.4%; the percent labeling under setting [5] came to 51.3%; the percent labeling under setting [6] came to 28.6%. For the same molecule, the percent labeling is, setting by setting: under setting [7], 18.6%; under setting [8], 32.8%; under setting [9], 27.7%; under setting [10], 54.2%.
As for `O=C(CCc1ccnc2ccccc12)NCCS`, the percent labeling by setting is: under setting [11], 40.7%; under setting [1], 19.6%; under setting [2], 26.5%; under setting [3], 30%; under setting [4], 29%; under setting [5], 30.5%. For the same molecule, the percent labeling by setting is: under setting [6], 38.3%; under setting [12], 33.7%; under setting [7], 18.4%; under setting [8], 29.5%; under setting [9], 20.6%; under setting [10], 44.7%.
For the molecule `O=C(CCS)N1CCC(O)(c2ccccc2)CC1`, the percent labeling runs as follows: under setting [1], 17.7%; under setting [2], 33.9%; under setting [3], 36.3%; under setting [4], 30.3%; under setting [5], 36.4%; under setting [6], 51.6%. Further, the percent labeling is, setting by setting: under setting [7], 33.2%; under setting [8], 37.2%; under setting [9], 37.3%; under setting [10], 66.8%.
For `CN(C)CCOc1ccccc1NC(=O)CCS`, the percent labeling runs as follows: under setting [1], 17.9%; under setting [2], 45.1%; under setting [3], 41.8%; under setting [4], 27.3%; under setting [5], 43.6%; under setting [6], 33.5%. The molecule also came in with a percent labeling under setting [7] of 29.9%, a percent labeling under setting [8] of 33.1%, a percent labeling under setting [9] of 31.8% and a percent labeling under setting [10] of 51.7%.
Take `CC1CN(S(C)(=O)=O)C(C)CN1C(=O)CCS` (configuration not stated): the percent labeling came to 8.5% under setting [1]; 34.5% under setting [2]; 41.4% under setting [3]; 34.5% under setting [4]; 39.2% under setting [5]; 16.2% under setting [6]. Further, the percent labeling came to 17.9% under setting [7], 32% under setting [8], 36.6% under setting [9] and 49.6% under setting [10].
Regarding `Cc1cccc(C)c1N1CCN(C(=O)CCS)CC1`, the percent labeling was 5.5% under setting [1]; 13.5% under setting [2]; 16.4% under setting [3]; 0% under setting [4]; 19.4% under setting [5]; 20.2% under setting [6]. Also, the percent labeling by setting is: under setting [7], 9.4%; under setting [8], 16.2%; under setting [9], 17.5%; under setting [10], 34.6%.
On to `CCN(Cc1nc2ccsc2c(=O)[nH]1)C(=O)CCS`, for which the percent labeling amounted to 14% under setting [1]; 36.6% under setting [2]; 38.8% under setting [3]; 40.4% under setting [4]; 40.7% under setting [5]; 36.9% under setting [6]. For the same molecule, the percent labeling came to 29.3% under setting [7], 45.5% under setting [8], 41.1% under setting [9] and 63.1% under setting [10].
In the case of `Cn1cc(C(=O)NCCS)c2nc(-c3ccccc3)ccc21`, the percent labeling amounted to 31.4% under setting [11]; 25% under setting [1]; 35.2% under setting [2]; 9.9% under setting [3]; 12.5% under setting [4]; 16.7% under setting [5]. Moreover, the percent labeling under setting [6] was 58.3%; the percent labeling under setting [12] amounted to 18.6%; the percent labeling under setting [7] turned out to be 12.3%; the percent labeling under setting [8] was 10.1%; the percent labeling under setting [9] came to 6.2%; the percent labeling under setting [10] was found to be 15.9%.
As for `CCOCc1nc(C)c(C(=O)NCCS)s1`, the percent labeling under setting [11] stood at 29.5%; the percent labeling under setting [1] came out at 14%; the percent labeling under setting [2] came to 31.1%; the percent labeling under setting [3] turned out to be 20.6%; the percent labeling under setting [4] was determined as 29.7%; the percent labeling under setting [5] was 31.1%. In addition, the percent labeling was determined as 23.8% under setting [6]; 42.8% under setting [12]; 18.7% under setting [7]; 28.4% under setting [8]; 32.2% under setting [9]; 51.8% under setting [10].
Take `O=C(NCCS)c1ccc(OCc2ccccc2)cn1`: the percent labeling by setting is: under setting [11], 20.7%; under setting [1], 11.2%; under setting [2], 13.7%; under setting [3], 11.9%; under setting [4], 20.9%; under setting [5], 16.4%. In addition, the percent labeling reads like this: under setting [6], 42.8%; under setting [12], 25.1%; under setting [7], 15.4%; under setting [8], 14.4%; under setting [9], 12.6%; under setting [10], 19.9%.
In the case of `Cc1c(NC(=O)CCS)cnn1C1CCCC1`, the percent labeling by setting is: under setting [1], 16.3%; under setting [2], 34.7%; under setting [3], 41.9%; under setting [4], 36.8%; under setting [5], 33.7%; under setting [6], 31.9%. This molecule also came in with a percent labeling under setting [7] of 36.9%, a percent labeling under setting [8] of 38.4%, a percent labeling under setting [9] of 40.4% and a percent labeling under setting [10] of 62.4%.
`O=C(CCS)NC1(CO)CC2(CCOCC2)C1`: the percent labeling by setting is: under setting [1], 9.6%; under setting [2], 15.5%; under setting [3], 12.9%; under setting [4], 14.1%; under setting [5], 25.1%; under setting [6], 8.1%. Besides, the percent labeling worked out at 6.4% under setting [7], 23% under setting [8], 26.2% under setting [9] and 35.8% under setting [10].
Take `O=C(CC1CCS(=O)(=O)C1)NCCS` (configuration not stated): the percent labeling came out at 21.9% under setting [11]; 16.3% under setting [1]; 28.7% under setting [2]; 25.9% under setting [3]; 30.5% under setting [4]; 25.4% under setting [5]. The percent labeling is 14.9% under setting [6]; 32.3% under setting [12]; 28% under setting [7]; 32.7% under setting [8]; 36.5% under setting [9]; 37.5% under setting [10].
On to `O=C(NCCS)C1CC(c2ccc(C(F)(F)F)cc2)C1` (configuration not stated), for which the percent labeling runs as follows: under setting [11], 27.1%; under setting [1], 13.4%; under setting [2], 19.7%; under setting [3], 10.9%; under setting [4], 16.4%; under setting [5], 11.6%. In addition, the percent labeling came to 25.4% under setting [6]; 25.9% under setting [12]; 12.6% under setting [7]; 13.7% under setting [8]; 9.3% under setting [9]; 14.5% under setting [10].
